Measurements: PubChem BioAssay (NCATS)
“And” between values parts separate entries of the source, which are not always exact repeats. Equal values may be shown once. This list was built around the results that the source calls inconclusive (neither active nor inactive); the mix of calls is not that of the screen. Where the call is inconclusive, the potency comes from a doubtful curve fit. The source made the active and inactive calls. Calls come from the whole dose curve; as a rule, active = well fitted cell-killing curve with a large enough effect; inconclusive = small, poorly fitted or top-dose-only effect, or effect the other way; inactive = no such curve, though single readings can be large or run the other way.

assay: Viability qHTS for spleen associated tyrosine kinase inhibitor (SYKi) naive MV4-11 cells (AID 1963823); conditions: MV4-11 AML viability, CellTiter-Glo luminescence, 72 h; viability (% of control): at 45 µM (top of the series); note: nearly all actives have a fitted effect of over 40% in size
Procedure, shortened: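 In this viability screen, compounds acted on SYK inhibitor naive MV4-11 cells for three days (72 hr, 37 C). Remaining viable cells were measured by CellTiter-Glo luminescence following a 10 min room-temperature development.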
Potency is the fitted concentration of half-maximal effect; tags give direction and shape of the fitted curve.

Which Potency does the source give for `CC[C@@H](Oc1cccc(CN(CCCOc2ccc(OC)cc2)c2nc3ccccc3o2)c1)C(=O)O` here?
The Potency was inconclusive: 37.2 µM [cytotoxic, single point].

For `O=c1[nH]sc2cc(Cl)ccc12`, which “viability (% of control)” value is on record?
The value was inactive: 5.46%.

Which Potency does the source give for `CC(C)Cc1ccc(CC(=O)O)cc1` here?
Its Potency is inconclusive: 16.8 µM [cytotoxic, single point].

With `O=C(OCC(O)CO)c1ccccc1Nc1ccnc2c(C(F)(F)F)cccc12` (stereo unspecified) as the molecule, how does the Potency read?
Its Potency is inconclusive: 26.6 µM [cytotoxic, single point].

Which Potency does the source give for `COc1ccc(S(=O)(=O)NCc2ccc(C(=O)NCCc3ccc(Cl)cn3)cc2)cc1` here?
The Potency was inconclusive: 13.2 µM [cytotoxic, partial curve].

Which Potency does the source give for `Cc1cc(O)c2ccccc2c1O` here?
The Potency was inconclusive: 9.44 µM [cytotoxic, partial curve].

Which Potency does the source give for `Nc1ccc([N+](=O)[O-])cc1O` here?
Its Potency is inconclusive: 17.2 µM [cytotoxic, partial curve].

With `CCCCC(=O)O[C@]1(C(=O)CO)CC[C@H]2[C@@H]3CCC4=CC(=O)CC[C@]4(C)[C@H]3[C@@H](O)C[C@@]21C` as the molecule, how does the Potency read?
The Potency was inconclusive: 0.0944 µM [rising, full curve].

With `COc1ccc(-n2c(SCCCN3C(=O)c4cccc5cccc(c45)C3=O)nnc2-c2ccncc2)cc1` as the molecule, how does the Potency read?
The Potency was inconclusive: 20.9 µM [cytotoxic, partial curve].

Which Potency does the source give for `Cc1ccc(Nc2ncc3c(n2)N(C)C(=O)N(c2cc(NC(=O)c4cccc(C(F)(F)F)c4)ccc2C)C3)cn1` here?
The Potency was active: 0.0148 µM.

Which Potency does the source give for `OC[C@@H](O)[C@H](O)[C@H](O)[C@@H](O)CO` here?
The Potency was inconclusive: 266 nM [cytotoxic, full curve, poor fit] and active: 5.96 µM.
